At least one read-out could not be matched to a standard name with certainty. Some compounds share one range, which may span the group rather than tell each member.
How the values were obtained:
Type in all cases: in vivo
[1] = tested on: Cocklebur; assay: post-emergent herbicidal test; details: B
[2] = tested on: Smartweed; assay: post-emergent herbicidal test; details: F
[3] = tested on: Canada Thistle; assay: pre-emergent herbicidal test; details: A, 5.6 kg/h
[4] = tested on: Downy Brome; assay: pre-emergent herbicidal test; details: J, 5.6 kg/h
[5] = tested on: Cocklebur; assay: pre-emergent herbicidal test; details: B, 5.6 kg/h
[6] = tested on: Morning Glory; assay: pre-emergent herbicidal test; details: D, 5.6 kg/h
[7] = tested on: Quackgrass; assay: pre-emergent herbicidal test; details: H, 5.6 kg/h
[8] = tested on: Quackgrass; assay: post-emergent herbicidal test; details: H
[9] = tested on: Velvetleaf; assay: pre-emergent herbicidal test; details: C, 5.6 kg/h
[10] = tested on: Morning Glory; assay: post-emergent herbicidal test; details: D
[11] = tested on: Nutsedge; assay: pre-emergent herbicidal test; details: G, 5.6 kg/h
[12] = tested on: Canada Thistle; assay: post-emergent herbicidal test; details: A
[13] = tested on: Barnyard Grass; assay: post-emergent herbicidal test; details: K
[14] = tested on: Lambsquarters; assay: pre-emergent herbicidal test; details: E, 5.6 kg/h
[15] = tested on: Barnyard Grass; assay: pre-emergent herbicidal test; details: K, 5.6 kg/h
[16] = tested on: Velvetleaf; assay: post-emergent herbicidal test; details: C
[17] = tested on: Johnson Grass; assay: pre-emergent herbicidal test; details: I, 5.6 kg/h
[18] = tested on: Nutsedge; assay: post-emergent herbicidal test; details: G
[19] = tested on: Johnson Grass; assay: post-emergent herbicidal test; details: I
[20] = tested on: Smartweed; assay: pre-emergent herbicidal test; details: F, 5.6 kg/h
[21] = tested on: Downy Brome; assay: post-emergent herbicidal test; details: J
[22] = tested on: Lambsquarters; assay: post-emergent herbicidal test; details: E

| SMILES | post-emergent herbicidal rating ([1]; 5.6 kg/h, 4 WAT) | post-emergent herbicidal rating ([2]; 5.6 kg/h, 4 WAT) | post-emergent herbicidal rating ([8]; 5.6 kg/h, 4 WAT) | post-emergent herbicidal rating ([10]; 5.6 kg/h, 4 WAT) | post-emergent herbicidal rating ([12]; 5.6 kg/h, 4 WAT) | post-emergent herbicidal rating ([13]; 5.6 kg/h, 4 WAT) | post-emergent herbicidal rating ([16]; 5.6 kg/h, 4 WAT) | post-emergent herbicidal rating ([18]; 5.6 kg/h, 4 WAT) | post-emergent herbicidal rating ([19]; 5.6 kg/h, 4 WAT) | pre-emergent herbicidal rating ([3]; 2 WAT) | pre-emergent herbicidal rating ([4]; 2 WAT) | pre-emergent herbicidal rating ([5]; 2 WAT) | pre-emergent herbicidal rating ([6]; 2 WAT) | pre-emergent herbicidal rating ([7]; 2 WAT) | pre-emergent herbicidal rating ([9]; 2 WAT) | pre-emergent herbicidal rating ([11]; 2 WAT) | pre-emergent herbicidal rating ([14]; 2 WAT) | pre-emergent herbicidal rating ([15]; 2 WAT) | pre-emergent herbicidal rating ([17]; 2 WAT) | pre-emergent herbicidal rating ([20]; 2 WAT) | also measured |
| --- | --- | --- | --- | --- | --- | --- | --- | --- | --- | --- | --- | --- | --- | --- | --- | --- | --- | --- | --- | --- | --- |
| COC(=N)Cn1c(=O)sc2ccc(Cl)cc21 [Compound 14] | 1 (25-49) | 1 (25-49) | 0 (0-24) | 2 (50-74) | 2 (50-74) | 0 (0-24) | 1 (25-49) | 0 (0-24) | 0 (0-24) | – | – | – | – | – | – | – | – | – | – | – | pre-emergent herbicidal rating ([3]; 4 WAT): 3 (75-100); pre-emergent herbicidal rating ([4]; 4 WAT): 0 (0-24); pre-emergent herbicidal rating ([5]; 4 WAT): 1 (25-49); pre-emergent herbicidal rating ([6]; 4 WAT): 1 (25-49); pre-emergent herbicidal rating ([7]; 4 WAT): 0 (0-24); pre-emergent herbicidal rating ([9]; 4 WAT): 1 (25-49); pre-emergent herbicidal rating ([11]; 4 WAT): 0 (0-24); pre-emergent herbicidal rating ([14]; 4 WAT): 3 (75-100); pre-emergent herbicidal rating ([15]; 4 WAT): 0 (0-24); pre-emergent herbicidal rating ([17]; 4 WAT): 0 (0-24); pre-emergent herbicidal rating ([20]; 4 WAT): 1 (25-49); post-emergent herbicidal rating ([21]; 5.6 kg/h, 4 WAT): 0 (0-24); post-emergent herbicidal rating ([22]; 5.6 kg/h, 4 WAT): 3 (75-99) |
| CCOc1ccc2c(c1)sc(=O)n2CC(=N)OC [Compound 15] | – | – | – | – | – | – | – | – | – | 0 (0-24) | 0 (0-24) | 0 (0-24) | 0 (0-24) | 0 (0-24) | 0 (0-24) | 0 (0-24) | 0 (0-24) | 0 (0-24) | 0 (0-24) | 0 (0-24) | post-emergent herbicidal rating ([1]; 5.6 kg/h, 2 WAT): 1 (25-49); post-emergent herbicidal rating ([2]; 5.6 kg/h, 2 WAT): 0 (0-24); post-emergent herbicidal rating ([8]; 5.6 kg/h, 2 WAT): 0 (0-24); post-emergent herbicidal rating ([10]; 5.6 kg/h, 2 WAT): 0 (0-24); post-emergent herbicidal rating ([12]; 5.6 kg/h, 2 WAT): 0 (0-24); post-emergent herbicidal rating ([13]; 5.6 kg/h, 2 WAT): 0 (0-24); post-emergent herbicidal rating ([16]; 5.6 kg/h, 2 WAT): 0 (0-24); post-emergent herbicidal rating ([18]; 5.6 kg/h, 2 WAT): 0 (0-24); post-emergent herbicidal rating ([19]; 5.6 kg/h, 2 WAT): 0 (0-24); post-emergent herbicidal rating ([21]; 5.6 kg/h, 2 WAT): 0 (0-24); post-emergent herbicidal rating ([22]; 5.6 kg/h, 2 WAT): 1 (25-49) |
| CC(C)OC(=N)Cn1c(=O)sc2ccccc21 [Compound 16] | 2 (50-74) | 2 (50-74) | 0 (0-24) | 2 (50-74) | 2 (50-74) | 0 (0-24) | 2 (50-74) | 0 (0-24) | 0 (0-24) | – | – | – | – | – | – | – | – | – | – | – | pre-emergent herbicidal rating ([3]; 4 WAT): 3 (75-100); pre-emergent herbicidal rating ([4]; 4 WAT): 0 (0-24); pre-emergent herbicidal rating ([5]; 4 WAT): 1 (25-49); pre-emergent herbicidal rating ([6]; 4 WAT): 1 (25-49); pre-emergent herbicidal rating ([7]; 4 WAT): 0 (0-24); pre-emergent herbicidal rating ([9]; 4 WAT): 1 (25-49); pre-emergent herbicidal rating ([11]; 4 WAT): 0 (0-24); pre-emergent herbicidal rating ([14]; 4 WAT): 2 (50-74); pre-emergent herbicidal rating ([15]; 4 WAT): 0 (0-24); pre-emergent herbicidal rating ([17]; 4 WAT): 0 (0-24); pre-emergent herbicidal rating ([20]; 4 WAT): 1 (25-49); post-emergent herbicidal rating ([21]; 5.6 kg/h, 4 WAT): 0 (0-24); post-emergent herbicidal rating ([22]; 5.6 kg/h, 4 WAT): 4 (100) |
| CCCOC(=N)Cn1c(=O)sc2ccccc21 [Compound 17] | 2 (50-74) | 2 (50-74) | 0 (0-24) | 2 (50-74) | 2 (50-74) | 0 (0-24) | 2 (50-74) | 0 (0-24) | 0 (0-24) | – | – | – | – | – | – | – | – | – | – | – | pre-emergent herbicidal rating ([3]; 4 WAT): 3 (75-100); pre-emergent herbicidal rating ([4]; 4 WAT): 0 (0-24); pre-emergent herbicidal rating ([5]; 4 WAT): 1 (25-49); pre-emergent herbicidal rating ([6]; 4 WAT): 1 (25-49); pre-emergent herbicidal rating ([7]; 4 WAT): 0 (0-24); pre-emergent herbicidal rating ([9]; 4 WAT): 1 (25-49); pre-emergent herbicidal rating ([11]; 4 WAT): 0 (0-24); pre-emergent herbicidal rating ([14]; 4 WAT): 3 (75-100); pre-emergent herbicidal rating ([15]; 4 WAT): 1 (25-49); pre-emergent herbicidal rating ([17]; 4 WAT): 0 (0-24); pre-emergent herbicidal rating ([20]; 4 WAT): 2 (50-74); post-emergent herbicidal rating ([21]; 5.6 kg/h, 4 WAT): 0 (0-24); post-emergent herbicidal rating ([22]; 5.6 kg/h, 4 WAT): 4 (100) |
| COC(=N)C(C)n1c(=O)sc2ccccc21 (centres unmarked) [Compound 19] | – | – | – | – | – | – | – | – | – | 0 (0-24) | 0 (0-24) | 0 (0-24) | 0 (0-24) | 0 (0-24) | 0 (0-24) | 0 (0-24) | 0 (0-24) | 0 (0-24) | 0 (0-24) | 0 (0-24) | post-emergent herbicidal rating ([1]; 11.2 kg/h, 2 WAT): 1 (25-49); post-emergent herbicidal rating ([2]; 11.2 kg/h, 2 WAT): 0 (0-24); post-emergent herbicidal rating ([8]; 11.2 kg/h, 2 WAT): 0 (0-24); post-emergent herbicidal rating ([10]; 11.2 kg/h, 2 WAT): 1 (25-49); post-emergent herbicidal rating ([12]; 11.2 kg/h, 2 WAT): 1 (25-49); post-emergent herbicidal rating ([13]; 11.2 kg/h, 2 WAT): 0 (0-24); post-emergent herbicidal rating ([16]; 11.2 kg/h, 2 WAT): 1 (25-49); post-emergent herbicidal rating ([18]; 11.2 kg/h, 2 WAT): 0 (0-24); post-emergent herbicidal rating ([19]; 11.2 kg/h, 2 WAT): 0 (0-24); post-emergent herbicidal rating ([21]; 11.2 kg/h, 2 WAT): 0 (0-24); post-emergent herbicidal rating ([22]; 11.2 kg/h, 2 WAT): 1 (25-49) |
| COC(=N)Cn1c(=O)sc2cc(Br)ccc21 [Compound 20] | 1 (25-49) | 1 (25-49) | 0 (0-24) | 1 (25-49) | 1 (25-49) | 0 (0-24) | 1 (25-49) | 0 (0-24) | 0 (0-24) | 0 (0-24) | 0 (0-24) | 1 (25-49) | 1 (25-49) | 0 (0-24) | 0 (0-24) | 0 (0-24) | 0 (0-24) | 0 (0-24) | 0 (0-24) | 0 (0-24) | post-emergent herbicidal rating ([21]; 5.6 kg/h, 4 WAT): 0 (0-24); post-emergent herbicidal rating ([22]; 5.6 kg/h, 4 WAT): 2 (50-74) |
| COC(=N)C(C)n1c(=O)sc2cc(Br)ccc21 (centres unmarked) [Compound 21] | – | – | – | – | – | – | – | – | – | 0 (0-24) | 0 (0-24) | 0 (0-24) | 0 (0-24) | 0 (0-24) | 0 (0-24) | 0 (0-24) | 0 (0-24) | 0 (0-24) | 0 (0-24) | 0 (0-24) | post-emergent herbicidal rating ([1]; 5.6 kg/h, 2 WAT): 1 (25-49); post-emergent herbicidal rating ([2]; 5.6 kg/h, 2 WAT): 0 (0-24); post-emergent herbicidal rating ([8]; 5.6 kg/h, 2 WAT): 0 (0-24); post-emergent herbicidal rating ([10]; 5.6 kg/h, 2 WAT): 1 (25-49); post-emergent herbicidal rating ([12]; 5.6 kg/h, 2 WAT): 0 (0-24); post-emergent herbicidal rating ([13]; 5.6 kg/h, 2 WAT): 0 (0-24); post-emergent herbicidal rating ([16]; 5.6 kg/h, 2 WAT): 0 (0-24); post-emergent herbicidal rating ([18]; 5.6 kg/h, 2 WAT): 0 (0-24); post-emergent herbicidal rating ([19]; 5.6 kg/h, 2 WAT): 0 (0-24); post-emergent herbicidal rating ([21]; 5.6 kg/h, 2 WAT): 0 (0-24); post-emergent herbicidal rating ([22]; 5.6 kg/h, 2 WAT): 1 (25-49) |
| COC(=N)Cn1c(=O)oc2ccccc21 [Compound 22] | – | – | – | – | – | – | – | – | – | 0 (0-24) | 0 (0-24) | 0 (0-24) | 0 (0-24) | 0 (0-24) | 0 (0-24) | 0 (0-24) | 0 (0-24) | 0 (0-24) | 0 (0-24) | 0 (0-24) | post-emergent herbicidal rating ([1]; 5.6 kg/h, 2 WAT): 1 (25-49); post-emergent herbicidal rating ([2]; 5.6 kg/h, 2 WAT): 0 (0-24); post-emergent herbicidal rating ([8]; 5.6 kg/h, 2 WAT): 0 (0-24); post-emergent herbicidal rating ([10]; 5.6 kg/h, 2 WAT): 1 (25-49); post-emergent herbicidal rating ([12]; 5.6 kg/h, 2 WAT): 0 (0-24); post-emergent herbicidal rating ([13]; 5.6 kg/h, 2 WAT): 0 (0-24); post-emergent herbicidal rating ([16]; 5.6 kg/h, 2 WAT): 0 (0-24); post-emergent herbicidal rating ([18]; 5.6 kg/h, 2 WAT): 0 (0-24); post-emergent herbicidal rating ([19]; 5.6 kg/h, 2 WAT): 0 (0-24); post-emergent herbicidal rating ([21]; 5.6 kg/h, 2 WAT): 0 (0-24); post-emergent herbicidal rating ([22]; 5.6 kg/h, 2 WAT): 0 (0-24) |

— patent US4228292A, “N-Substituted benzothiazolines and benzoxazolines and their use as herbicides and plant growth regulants” (Monsanto Company, priority 1978, dated 1980)
